According to PubChem BioAssay AID504332 (National Center for Advancing Translational Sciences (NCATS), 2011):
Hit rate of the full screen: of about 350,000 compounds, about 31,000 (8.9%) were called active. Inconclusive results, whose numbers are uncertain, are shown with a selection of clear calls. Calls come from the whole dose curve; as a rule, active = well fitted inhibition curve with a large enough effect; inconclusive = small, poorly fitted or top-dose-only effect; inactive = no such curve, though single readings can be large or run the other way. Where the call is inconclusive, the potency comes from a doubtful curve fit.

Each compound was assayed against Histone-lysine N-methyltransferase EHMT2 (Homo sapiens) (UniProt Q96KQ7) (assay: qHTS Assay for Inhibitors of Histone Lysine Methyltransferase G9a). Conditions: G9a H3K9 monomethylation, AlphaScreen, 2 h; activity, negative = inhibition: at 59 µM (top of the series) unless noted.
Chain of UniProt Q96KQ7 (Q96KQ7 whole entry, looked up): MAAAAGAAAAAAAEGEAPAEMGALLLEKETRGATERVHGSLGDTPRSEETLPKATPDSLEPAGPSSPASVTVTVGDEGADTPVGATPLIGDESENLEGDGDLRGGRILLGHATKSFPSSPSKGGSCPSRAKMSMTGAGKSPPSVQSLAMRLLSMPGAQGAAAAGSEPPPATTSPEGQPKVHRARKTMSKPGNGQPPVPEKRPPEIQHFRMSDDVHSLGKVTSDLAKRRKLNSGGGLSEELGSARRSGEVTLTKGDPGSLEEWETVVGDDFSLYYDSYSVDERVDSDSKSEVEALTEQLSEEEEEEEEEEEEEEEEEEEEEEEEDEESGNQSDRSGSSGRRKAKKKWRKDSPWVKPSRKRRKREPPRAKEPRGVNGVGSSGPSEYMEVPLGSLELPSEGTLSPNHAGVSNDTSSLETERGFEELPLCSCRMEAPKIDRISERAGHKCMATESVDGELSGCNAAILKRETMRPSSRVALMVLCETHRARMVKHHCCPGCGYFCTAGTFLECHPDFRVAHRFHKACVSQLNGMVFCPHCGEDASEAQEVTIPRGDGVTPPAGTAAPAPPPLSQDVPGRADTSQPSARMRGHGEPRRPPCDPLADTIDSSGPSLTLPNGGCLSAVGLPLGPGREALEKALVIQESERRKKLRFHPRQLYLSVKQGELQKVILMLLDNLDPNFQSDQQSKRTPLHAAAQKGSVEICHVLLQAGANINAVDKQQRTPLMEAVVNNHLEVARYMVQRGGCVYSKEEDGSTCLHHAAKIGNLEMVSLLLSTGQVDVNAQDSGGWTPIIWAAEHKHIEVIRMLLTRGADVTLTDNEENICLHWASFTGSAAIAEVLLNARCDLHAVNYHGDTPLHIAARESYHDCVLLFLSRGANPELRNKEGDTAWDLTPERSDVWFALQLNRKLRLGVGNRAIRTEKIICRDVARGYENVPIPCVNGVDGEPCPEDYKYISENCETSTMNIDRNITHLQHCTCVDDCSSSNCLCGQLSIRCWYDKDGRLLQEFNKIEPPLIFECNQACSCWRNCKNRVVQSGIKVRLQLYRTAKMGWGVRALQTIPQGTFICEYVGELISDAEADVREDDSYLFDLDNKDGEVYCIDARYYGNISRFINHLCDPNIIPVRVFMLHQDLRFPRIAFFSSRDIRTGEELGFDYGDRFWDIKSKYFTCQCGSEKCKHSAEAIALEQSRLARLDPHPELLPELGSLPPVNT
Procedure, shortened: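 Methyltransferase reactions run at room temperature for 2 h (20 nM enzyme, 500 nM biotin-H3K9 peptide, 20 uM SAM) after a 15 min compound preincubation; product detected by AlphaScreen beads and anti-H3K9me1 antibody.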
% is set by controls: 0 for no effect and ±100 for the full control effect; potency is the fitted concentration of half-maximal effect; tags give direction and shape of the fitted curve.
Note: nearly all actives have a fitted effect of over 75% in size.

**Q.** For CCOC(=O)c1ccc(N2CCN(c3ccccc3F)CC2)c(NC(=O)Nc2ccccc2)c1, which Potency is on record?
**A.** inconclusive: 44.7 µM [inhibitor, partial curve, poor fit]

**Q.** Cc1noc(C)c1COc1ccc(C(=O)N2CCN(c3ccccc3F)CC2)cc1 was tested. Which Potency did it give?
**A.** inconclusive: 39.8 µM [inhibitor, single point]

**Q.** For CCN1CCN(c2ncnc3c2sc(=S)n3-c2ccccc2)CC1, which Potency is on record?
**A.** active: 50.1 µM

**Q.** Which Potency does the source give for O=C(NCc1ccco1)c1ccc2c(c1)C(=O)N(Cc1ccccc1)C2=O here?
**A.** inconclusive: 31.6 µM [inhibitor, single point]

**Q.** How did the Potency turn out when CC1=C(Nc2ccc(C(=O)O)cc2)C(=O)c2ccccc2C1=O was run?
**A.** inconclusive: 39.8 µM [inhibitor, partial curve, poor fit]

**Q.** For Cc1cccc(C)c1NC(=O)Cc1cccs1, which “activity, negative = inhibition” value is on record?
**A.** inactive: 10.9% [at 102 µM]

**Q.** COC(=O)c1ccc(C2C(C(=O)c3cc4ccccc4o3)=C(O)C(=O)N2CCN2CCOCC2)cc1 (stereo not given) was tested. Which Potency did it give?
**A.** inconclusive: 79.4 µM [inhibitor, single point]

**Q.** With Cn1c(COc2nnc(-c3ccc(Cl)cc3)c3ccccc23)nc2ccccc21 as the compound, how does the Potency read?
**A.** inconclusive: 3.98 µM [inhibitor, partial curve, poor fit]

**Q.** With CCN1C(=O)/C(=C2/C(=O)N3c4c(cc(OC(C)=O)cc42)C(C)=CC3(C)C)SC1=S as the compound, how does the Potency read?
**A.** active: 2.82 µM

**Q.** With O=C(COC(=O)c1ccc(S(=O)(=O)N2CCCC2)cc1)NCc1cccs1 as the compound, how does the Potency read?
**A.** inconclusive: 7.08 µM [inhibitor, full curve]

**Q.** With O=C(N/C(=C/c1cccnc1)C(=O)N1CCOCC1)c1ccccc1Cl as the compound, how does the Potency read?
**A.** inconclusive: 35.5 µM [inhibitor, partial curve, poor fit]

**Q.** Which Potency does the source give for COc1ccc(-n2nc3cc(C)c(NC(=O)c4ccc(C)cc4C)cc3n2)cc1Cl here?
**A.** inconclusive: 28.2 µM [inhibitor, partial curve]

**Q.** How did the Potency turn out when O=C(NCC(c1ccco1)N1CCCC1)c1cccc(NS(=O)(=O)c2ccccc2)c1 (stereo not given) was run?
**A.** inconclusive: 31.6 µM [inhibitor, partial curve, poor fit]

**Q.** Which Potency does the source give for COC(=O)[C@@H]1[C@@H](C)OC(=O)N[C@H]1c1ccccc1 here?
**A.** inconclusive: 79.4 µM [inhibitor, single point]

**Q.** For Cc1nc(S(=O)(=O)Nc2ccc3c(c2)OCCO3)cn1C, which Potency is on record?
**A.** inconclusive: 56.2 µM [inhibitor, partial curve]

**Q.** Cc1ccccc1OCC(=O)Nc1ccccc1C(=O)NC1CC1 was tested. Which Potency did it give?
**A.** inconclusive: 39.8 µM [inhibitor, partial curve, poor fit]

**Q.** How did the “activity, negative = inhibition” value turn out when OC[C@@H]1[C@@H](c2ccccc2)C(c2cccc(Cl)c2)=NN1c1ccccc1 was run?
**A.** inactive: 313% [at 102 µM]

**Q.** With CC[n+]1c(/C=C2/C=C(C)CC(C)(C)C2)sc2ccc(OC)cc21 as the compound, how does the activity, negative = inhibition read?
**A.** inactive: -37.3% [at 12.7 µM]

**Q.** With COc1ccc(C(=O)Nc2cccc(-c3nc4cccnc4s3)c2C)c(OC)c1 as the compound, how does the Potency read?
**A.** active: 11.2 µM

**Q.** For NC(=O)c1c(NC(=O)c2ccccc2)sc2c1CCN(Cc1ccccc1)C2, which “activity, negative = inhibition” value is on record?
**A.** inactive: 2.95% [at 102 µM]

**Q.** How did the Potency turn out when COC(=O)c1ccc(C2/C(=C(/O)c3ccc(OC)cc3)C(=O)C(=O)N2Cc2ccco2)cc1 (stereo not given) was run?
**A.** active: 44.7 µM

**Q.** CC(C)CSc1nc2ccccc2n1CC(=O)O was tested. Which “activity, negative = inhibition” value did it give?
**A.** inactive: 3.65% [at 102 µM]

**Q.** How did the “activity, negative = inhibition” value turn out when Cc1noc(C)c1CS(=O)(=O)c1ccc([N+](=O)[O-])cc1 was run?
**A.** inactive: 5.68% [at 102 µM]

**Q.** Which Potency does the source give for O=C1CN(C(=O)c2ccccc2C(=O)O)c2ccccc2N1 here?
**A.** inconclusive: 63.1 µM [inhibitor, single point]

**Q.** How did the Potency turn out when Cc1nnc(SCC(=O)N2CCN(S(=O)(=O)c3ccccc3)CC2)n1Cc1ccccc1 was run?
**A.** inconclusive: 56.2 µM [inhibitor, partial curve]

**Q.** Which Potency does the source give for Cc1ccc(-c2c(C)n3c4c(=O)n(C)c(=O)n(C)c4nc3n2CCCO)cc1 here?
**A.** inconclusive: 8.91 µM [inhibitor, partial curve, poor fit]

**Q.** CN(CC(=O)Nc1ccccc1Cl)C(=O)COC(=O)c1ccc(S(=O)(=O)C(F)F)cc1 was tested. Which Potency did it give?
**A.** inconclusive: 89.1 µM [inhibitor, partial curve, poor fit]

**Q.** Which “activity, negative = inhibition” value does the source give for COc1ccc(C(c2nnnn2C2CCCCC2)N2CCN(C)CC2)c(OC)c1 (stereo not given) here?
**A.** inactive: -37.1% [at 102 µM]

**Q.** For COc1ccc(N2C3=C(CC4=C2CC(C)(C)CC4=O)C(=O)CC(C)(C)C3)cc1, which Potency is on record?
**A.** inconclusive: 1.78 µM [inhibitor, partial curve, poor fit]

**Q.** With Cc1noc(/C=C/N(C)C)c1S(=O)(=O)N1CCCC(C(=O)NC(C)c2ccccc2)C1 (stereo not given) as the compound, how does the activity, negative = inhibition read?
**A.** inconclusive: -60.1% [inhibitor]

**Q.** With Cc1cccc(C(=O)Nc2nnc(S(=O)(=O)N3CCCCCC3)s2)c1 as the compound, how does the “activity, negative = inhibition” value read?
**A.** inactive: -0.38% [at 102 µM]

**Q.** With COC(=O)CSCC(=O)Nc1nnc(-c2cccc(C)c2)s1 as the compound, how does the Potency read?
**A.** inconclusive: 50.1 µM [inhibitor, partial curve, poor fit]

**Q.** With CCOc1cc(Br)c(C2C(C(=O)OC)=C(C)NC3=C2C(=O)c2ccccc23)cc1OCC (stereo not given) as the compound, how does the Potency read?
**A.** active: 17.8 µM

**Q.** For Cc1ccc(NC(=O)CCN2CCCCC2)cc1, which Potency is on record?
**A.** inconclusive: 6.31 µM [inhibitor, single point]

**Q.** With CCOC(=O)c1c(NC(=O)CSc2nc3c(c(=O)n(C)c(=O)n3C)n2C(C)C)sc(C)c1C as the compound, how does the activity, negative = inhibition read?
**A.** inactive: -2.38% [at 12.7 µM]

**Q.** Cc1nccc(-c2ccc(-n3cnc4ccccc43)cc2)n1 was tested. Which Potency did it give?
**A.** inconclusive: 89.1 µM [inhibitor, single point]

**Q.** Which Potency does the source give for CCOC(=O)C1(Cc2cccc(OC)c2)CCCN(S(=O)(=O)c2cccnc2)C1 (stereo not given) here?
**A.** inconclusive: 89.1 µM [inhibitor, partial curve, poor fit]

**Q.** How did the activity, negative = inhibition turn out when Nc1cc(S(=O)(=O)Nc2cc(Cl)ccc2Cl)ccc1N1CCCC1 was run?
**A.** inactive: 7.63% [at 12.7 µM]

**Q.** For CCC(C)NC(=O)C1CCN(S(=O)(=O)c2ccc3c(ccn3CC)c2)CC1 (stereo not given), which “activity, negative = inhibition” value is on record?
**A.** inactive: 0.253%

**Q.** How did the Potency turn out when FC(F)(F)c1cccc(Cc2noc(CN3CCCC(CN4CCCC4)C3)n2)c1 (stereo not given) was run?
**A.** inconclusive: 6.31 µM [inhibitor, partial curve, poor fit]

**Q.** With Cc1ccccc1-c1nnc(SC(C)C(=O)NC2CCCC2)o1 (stereo not given) as the compound, how does the Potency read?
**A.** inconclusive: 1.26 µM [inhibitor, single point]

**Q.** How did the Potency turn out when O=C(CSc1n[nH]c(-c2cccnc2)n1)Nc1cccc(Cl)c1 was run?
**A.** active: 50.1 µM

**Q.** With CCN(CC)CCNC(=O)c1ccc(NC(=O)C2CC(=O)N(c3ccc4c(c3)OCCO4)C2)cc1 (stereo not given) as the compound, how does the Potency read?
**A.** active: 39.8 µM

**Q.** Which Potency does the source give for Cc1nc2c(C(=O)NCCC(C)C)cnn2c(C)c1Cc1c(F)cccc1Cl here?
**A.** inconclusive: 39.8 µM [inhibitor, single point]

**Q.** For CCN(CCCCCCN)c1ccc2c(=O)[nH][nH]c(=O)c2c1, which Potency is on record?
**A.** inconclusive: 89.1 µM [inhibitor, single point]

**Q.** CC1CCCN(Cc2c(O)ccc3c(=O)c(-c4ccc(Cl)cc4)c(C(F)(F)F)oc23)C1 (stereo not given) was tested. Which “activity, negative = inhibition” value did it give?
**A.** inactive: 0.231%

**Q.** Which activity, negative = inhibition does the source give for Cc1cc(NC(=O)CSc2ccc(Cl)cc2)no1 here?
**A.** inactive: -3.29% [at 12.7 µM]

**Q.** O=C(O)c1ccccc1C(=O)Nc1nc(-c2ccccc2)cs1 was tested. Which Potency did it give?
**A.** inconclusive: 79.4 µM [inhibitor, single point]

**Q.** Which Potency does the source give for CC1CN(S(=O)(=O)c2ccc(C(=O)NN3CCN(C)CC3)cc2)CC(C)O1 (stereo not given) here?
**A.** inconclusive: 2.24 µM [inhibitor, full curve]

**Q.** Cn1cccc1Cc1nnc(SCC(=O)NCc2ccccc2)n1-c1ccc(F)cc1 was tested. Which Potency did it give?
**A.** active: 50.1 µM

**Q.** O=C(O)c1ccccc1NC(=O)N1c2ccccc2Sc2ccccc21 was tested. Which Potency did it give?
**A.** inconclusive: 0.158 µM [inhibitor, full curve, poor fit]

**Q.** Which “activity, negative = inhibition” value does the source give for CCOC(=O)C1CCCN(C(=O)C2CCN(S(=O)(=O)c3c(C)noc3/C=C/c3ccc(C)cc3)CC2)C1 (stereo not given) here?
**A.** inactive: -4.07%

**Q.** With Cc1ccccc1OCC(=O)OCC(=O)Nc1cc(S(=O)(=O)N2CCCCC2)ccc1Cl as the compound, how does the “activity, negative = inhibition” value read?
**A.** inactive: -25.9% [at 102 µM]

**Q.** For CC(C)N(C)S(=O)(=O)c1ccc(Cl)c(C(=O)O)c1, which Potency is on record?
**A.** inconclusive: 89.1 µM [inhibitor, single point]

**Q.** For CC(=O)c1ccc(NC(=O)CN2CCN(S(=O)(=O)c3ccc4ccccc4c3)CC2)cc1, which Potency is on record?
**A.** inconclusive: 20 µM [inhibitor, single point]

**Q.** With Cc1ccc(NNC(=O)C2CCC2)cc1C as the compound, how does the Potency read?
**A.** active: 11.2 µM

**Q.** How did the “activity, negative = inhibition” value turn out when CCOC(=O)C1CCN(c2ncnc3c2c(-c2ccccc2)cn3-c2ccc(C)c(Cl)c2)CC1 was run?
**A.** inactive: 1.85%

**Q.** CC(C)n1c(=NC(=O)c2ccco2)c(C#N)cc2c(=O)n3ccccc3cc21 was tested. Which Potency did it give?
**A.** inconclusive: 35.5 µM [inhibitor, single point]

**Q.** How did the Potency turn out when CC1CC(C)CN(C(=O)CSc2nnc(-c3ccc(F)cc3)o2)C1 (stereo not given) was run?
**A.** active: 70.8 µM

**Q.** Which Potency does the source give for CCc1nc(N2CCN(C(=O)c3ccco3)CC2)c2c3c(sc2n1)CCCC3 here?
**A.** active: 44.7 µM

**Q.** With Cc1nc2ccc(NC(=O)c3ccc4ccccc4n3)cc2s1 as the compound, how does the “activity, negative = inhibition” value read?
**A.** inactive: -36.6% [at 102 µM]

**Q.** For O=C(O)c1ccccc1Sc1ncnc2sc3c(c12)CCC3, which “activity, negative = inhibition” value is on record?
**A.** inactive: -23.7% [at 102 µM]

**Q.** CN(C)c1ccc(O)c2c1C[C@@H]1C[C@H]3C(N(C)C)C(=O)C(C(N)=O)=C(O)[C@@]3(O)C(=O)C1=C2O (stereo not given in full) was tested. Which activity, negative = inhibition did it give?
**A.** inactive: -50.9% [at 2.33 µM]

**Q.** Which activity, negative = inhibition does the source give for Cc1noc(C)c1COc1ccc(C(=O)NCCOc2ccccc2)cc1 here?
**A.** inactive: 19.8% [at 12.7 µM]

**Q.** Which “activity, negative = inhibition” value does the source give for CN(CC(=O)Nc1ncn[nH]1)S(=O)(=O)c1ccc(Br)cc1 here?
**A.** inactive: 2.07% [at 102 µM]

**Q.** With CCOc1ccc(C(=O)NC(=S)NCc2cccnc2)cc1 as the compound, how does the Potency read?
**A.** active: 1 µM

**Q.** With C=CCN1C(=O)CN=C1Nc1cc(C)cc(C)c1 as the compound, how does the Potency read?
**A.** inconclusive: 35.5 µM [inhibitor, single point]

**Q.** With COc1cc(C(=O)N(C)Cc2cccc(OC)c2OC)ccc1OCC(=O)Nc1cccc(C(F)(F)F)c1 as the compound, how does the Potency read?
**A.** inconclusive: 79.4 µM [inhibitor, partial curve, poor fit]

**Q.** Which “activity, negative = inhibition” value does the source give for CCCCc1cc(=O)oc2cc(C)cc(OCC(=O)Nc3ccccn3)c12 here?
**A.** inactive: 12.4% [at 102 µM]

**Q.** O=C(Nc1ccc(O)cc1)C1CCCN1S(=O)(=O)c1ccc(F)cc1 (stereo not given) was tested. Which Potency did it give?
**A.** inconclusive: 22.4 µM [inhibitor, full curve]
